Patent US20130130922A1, “ANALYSIS OF METHYLATION SITES” (Centre for Addiction and Mental Health, priority 2011, published 2013)

System: DNA
Experiment: Transalkylation activity of engineered MTases with synthetic AdoMet analogs
Settings: double-alanine mutant vs original His6 tagged variant
Description: The other two MTases, M.HpaII and M.SssI, were subcloned as His6-tagged variants, and the purification procedures for obtaining AdoMet-free enzymes were established. In the second step, appropriate changes were produced, by site-directed mutagenesis, in the HpaII (Q104A/N335A) and SssI (Q142A/N370A) MTases, and the double-alanine mutants were obtained in a similar fashion.
The analysis was done as described above.

SssI (Q142A/N370A): His6-tagged M.SssI C5 DNA methyltransferase (CG target site) double-alanine mutant Q142A/N370A
increase in transalkylation activity with synthetic AdoMet analogs as compared to the original His6 tagged variant: ~2 orders of magnitude
